Measured values from article PMC10104498 (Proceedings of the National Academy of Sciences of the …, 2023).

B1: GST-CHKα (enzyme, human)
chain: MKTKFCTGGEAEPSPLGLLLSCGSGSAAPAPGVGQQRDAASDLESKQLG[about 400 residues left out]

Columns and labels:
His-TRIM25 = His-TRIM25 (human, UniProt Q14258); experiment: pull-down
GST-CHKα = biological target: B1; experiment: pull-down

Row | Binder | binding result (His-TRIM25) | binding result (GST-CHKα)
1 | B1 | binds | 
2 | bacterially purified ENO1 (enzyme) not shown |  | binds
